# The list shows a part of the results.
# B1: BT3172pd (Bacteroides thetaiotaomicron) (protein)
# chain: MLPLRAEHYYYKQISLKEGLPSNVRCILRDEQGFIWIGTKAGLGKFDGHQLKRYKHQANDPHSLLHNLIYQIAEDKQHNIWILTEKGIARYQQQSNNFTFPTDEEGNYITAYSFCLVPDGILFGGKDRIYKYSYKDSSLRLLQYFNANSFKITALSVWDSKTLLCCSRWTGLYLVDLQTGEHRRPPFDCGPEITSMITDSKNRIWIAPYSGGLRCYSRDGKLSASYTTHNSSLSNDIVLSLAEREEQLWIGTDGGGINILHPETGEISQLEYIPGRENYSLPANSILCLHNDYNNNVWAGSTCNGLISIREVSMKTYTDVVPGNDRGLSNGTVRSLYRQSPDSIWIGTDGGGINLFSPHTEKFTHYSSTWGDKVAFISGFTPGKLLISLFSKGVFVFNPATGEKQPFTIIDKETTTRLCNRGKSVNLYQNTPNTVLFLGDHIYQYHLKEKKFSTITEEEGKDIVGTLVPFDHQENLTYINDIKHIYELDDQTSRLKTVFECYTDTVISSVSHDEQGHFWIGSNFGLIHYDPVLKSRTLVPTNLFTEINMVLCDQKGKVWIGVDNMLFAYFIKEQKFVLFGESNGAIQNEYLPNARLVNEQGDAYIGGVKGMLRIDGQLLLNTSEMPELQLLDITINGESANHEWYNHPAKISVPWNSNISIRIMSREEDIFRQKIYRYQIEGLNNEYTESYNPELVIRSLLPGSYRIMASCTAKDGSWIPDQQVLELTVLPPWYRTHHHHHH
# Assays:
# Test in all cases: glycan array binding signal (z-score within array); higher = stronger binding
# Details in all cases: glycan notation: IUPAC condensed, linker removed
# Gal(b1-4)Glc = target: Gal(b1-4)Glc
# How it was run: (§1)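 Glycan array binding is given as a within-array Z-score, which can be read as non-binding when negative. The arrays, 3228 of them, came from the Consortium for Functional Glycomics database and were retained only where the protein sequence was available. Z-scores were averaged across arrays of the same protein sequence at different concentrations or buffers and across linkers.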
# Gal(b1-4)Glc6S = target: Gal(b1-4)Glc6S
# How it was run: as §1
# Gal(b1-4)GlcNAc = target: Gal(b1-4)GlcNAc
# How it was run: as §1
# [1] = target: Gal(b1-4)GlcNAc(a1-6)Gal(b1-4)GlcNAc
# How it was run: as §1
# Gal(b1-4)GlcNAc(b1-2)Man = target: Gal(b1-4)GlcNAc(b1-2)Man
# How it was run: as §1
# [2] = target: Gal(b1-4)GlcNAc(b1-2)Man(a1-3)Man(b1-4)GlcNAc(b1-4)GlcNAc
# How it was run: as §1
# [3] = target: Gal(b1-4)GlcNAc(b1-2)Man(a1-3)[Gal(b1-4)GlcNAc(b1-2)Man(a1-6)]Man(b1-4)GlcNAc(b1-4)GlcNAc
# How it was run: as §1
# [4] = target: Gal(b1-4)GlcNAc(b1-2)Man(a1-3)[Gal(b1-4)GlcNAc(b1-2)Man(a1-6)]Man(b1-4)GlcNAc(b1-4)[Fuc(a1-6)]GlcNAc
# How it was run: as §1
# [5] = target: Gal(b1-4)GlcNAc(b1-2)Man(a1-3)[Gal(b1-4)GlcNAc(b1-2)Man(a1-6)][Gal(b1-4)GlcNAc(b1-4)]Man(b1-4)GlcNAc(b1-4)[Fuc(a1-6)]GlcNAc
# How it was run: as §1
# [6] = target: Gal(b1-4)GlcNAc(b1-2)Man(a1-3)[Gal(b1-4)GlcNAc(b1-2)Man(a1-6)][GlcNAc(b1-4)]Man(b1-4)GlcNAc(b1-4)[Fuc(a1-6)]GlcNAc
# How it was run: as §1
# [7] = target: Gal(b1-4)GlcNAc(b1-2)Man(a1-3)[GlcNAc(b1-2)Man(a1-6)]Man(b1-4)GlcNAc(b1-4)GlcNAc
# How it was run: as §1
# [8] = target: Gal(b1-4)GlcNAc(b1-2)Man(a1-3)[GlcNAc(b1-4)][Gal(b1-4)GlcNAc(b1-2)Man(a1-6)]Man(b1-4)GlcNAc(b1-4)GlcNAc
# How it was run: as §1
# [9] = target: Gal(b1-4)GlcNAc(b1-2)Man(a1-3)[Man(a1-6)]Man(b1-4)GlcNAc(b1-4)GlcNAc
# How it was run: as §1
# [10] = target: Gal(b1-4)GlcNAc(b1-2)Man(a1-6)Man(b1-4)GlcNAc(b1-4)GlcNAc
# How it was run: as §1
# [11] = target: Gal(b1-4)GlcNAc(b1-2)Man(a1-6)[GlcNAc(b1-2)Man(a1-3)]Man(b1-4)GlcNAc(b1-4)GlcNAc
# How it was run: as §1
# [12] = target: Gal(b1-4)GlcNAc(b1-2)Man(a1-6)[Man(a1-3)]Man(b1-4)GlcNAc(b1-4)GlcNAc
# How it was run: as §1
# [13] = target: Gal(b1-4)GlcNAc(b1-2)[Gal(b1-4)GlcNAc(b1-4)]Man(a1-3)[Gal(b1-4)GlcNAc(b1-2)Man(a1-6)]Man(b1-4)GlcNAc(b1-4)GlcNAc
# How it was run: as §1
# [14] = target: Gal(b1-4)GlcNAc(b1-2)[Gal(b1-4)GlcNAc(b1-4)]Man(a1-3)[Gal(b1-4)GlcNAc(b1-2)[Gal(b1-4)GlcNAc(b1-6)]Man(a1-6)]Man(b1-4)GlcNAc(b1-4)GlcNAc
# How it was run: as §1
# [15] = target: Gal(b1-4)GlcNAc(b1-2)[Gal(b1-4)GlcNAc(b1-4)]Man(a1-3)[GlcNAc(b1-4)][Gal(b1-4)GlcNAc(b1-2)Man(a1-6)]Man(b1-4)GlcNAc(b1-4)GlcNAc
# How it was run: as §1
# [16] = target: Gal(b1-4)GlcNAc(b1-2)[Gal(b1-4)GlcNAc(b1-4)]Man(a1-3)[GlcNAc(b1-4)][Gal(b1-4)GlcNAc(b1-2)[Gal(b1-4)GlcNAc(b1-6)]Man(a1-6)]Man(b1-4)GlcNAc(b1-4)GlcNAc
# How it was run: as §1
# [17] = target: Gal(b1-4)GlcNAc(b1-2)[Gal(b1-4)GlcNAc(b1-6)]Man(a1-6)[Gal(b1-4)GlcNAc(b1-2)Man(a1-3)]Man(b1-4)GlcNAc(b1-4)GlcNAc
# How it was run: as §1
# [18] = target: Gal(b1-4)GlcNAc(b1-2)[Gal(b1-4)GlcNAc(b1-6)]Man(a1-6)[Gal(b1-4)GlcNAc(b1-2)Man(a1-3)]Man(b1-4)GlcNAc(b1-4)[Fuc(a1-6)]GlcNAc
# How it was run: as §1
# [19] = target: Gal(b1-4)GlcNAc(b1-2)[Gal(b1-4)GlcNAc(b1-6)]Man(a1-6)[GlcNAc(b1-4)][Gal(b1-4)GlcNAc(b1-2)Man(a1-3)]Man(b1-4)GlcNAc(b1-4)GlcNAc
# How it was run: as §1
# [20] = target: Gal(b1-4)GlcNAc(b1-2)[Gal(b1-4)GlcNAc(b1-6)]Man(a1-6)[GlcNAc(b1-4)][Gal(b1-4)GlcNAc(b1-2)[Gal(b1-4)GlcNAc(b1-4)]Man(a1-3)]Man(b1-4)GlcNAc(b1-4)[Fuc(a1-6)]GlcNAc
# How it was run: as §1
# [21] = target: Gal(b1-4)GlcNAc(b1-3)Gal(b1-3)GalNAc
# How it was run: as §1
# [22] = target: Gal(b1-4)GlcNAc(b1-3)Gal(b1-3)GlcNAc
# How it was run: as §1
# [23] = target: Gal(b1-4)GlcNAc(b1-3)Gal(b1-4)Glc
# How it was run: as §1
# [24] = target: Gal(b1-4)GlcNAc(b1-3)Gal(b1-4)GlcNAc
# How it was run: as §1
# [25] = target: Gal(b1-4)GlcNAc(b1-3)Gal(b1-4)GlcNAc(b1-2)Man(a1-3)[Gal(b1-4)GlcNAc(b1-3)Gal(b1-4)GlcNAc(b1-2)Man(a1-6)]Man(b1-4)GlcNAc(b1-4)GlcNAc
# How it was run: as §1
# [26] = target: Gal(b1-4)GlcNAc(b1-3)Gal(b1-4)GlcNAc(b1-2)Man(a1-3)[Gal(b1-4)GlcNAc(b1-3)Gal(b1-4)GlcNAc(b1-2)Man(a1-6)]Man(b1-4)GlcNAc(b1-4)[Fuc(a1-6)]GlcNAc
# How it was run: as §1
binder,measurement,setting,value
B1,glycan array binding signal (z-score),Gal(b1-4)Glc,0.422
same,glycan array binding signal (z-score),Gal(b1-4)Glc6S,2.32
same,glycan array binding signal (z-score),Gal(b1-4)GlcNAc,0.216
same,glycan array binding signal (z-score),[1],-0.411
same,glycan array binding signal (z-score),Gal(b1-4)GlcNAc(b1-2)Man,0.948
same,glycan array binding signal (z-score),[2],0.77
same,glycan array binding signal (z-score),[3],-0.884
same,glycan array binding signal (z-score),[4],-0.075
same,glycan array binding signal (z-score),[5],-0.646
same,glycan array binding signal (z-score),[6],-0.967
same,glycan array binding signal (z-score),[7],-0.146
same,glycan array binding signal (z-score),[8],-0.425
same,glycan array binding signal (z-score),[9],-0.349
same,glycan array binding signal (z-score),[10],-0.309
same,glycan array binding signal (z-score),[11],0.924
same,glycan array binding signal (z-score),[12],-0.54
same,glycan array binding signal (z-score),[13],0.034
same,glycan array binding signal (z-score),[14],-0.785
same,glycan array binding signal (z-score),[15],-0.47
same,glycan array binding signal (z-score),[16],-0.569
same,glycan array binding signal (z-score),[17],0.117
same,glycan array binding signal (z-score),[18],0.113
same,glycan array binding signal (z-score),[19],0.038
same,glycan array binding signal (z-score),[20],-0.188
same,glycan array binding signal (z-score),[21],-0.351
same,glycan array binding signal (z-score),[22],-0.739
same,glycan array binding signal (z-score),[23],-0.591
same,glycan array binding signal (z-score),[24],-0.445
same,glycan array binding signal (z-score),[25],0.129
same,glycan array binding signal (z-score),[26],-0.257

# Source: the supplement of paper PMC8728848
